# Results: PubChem BioAssay AID1346428 (National Center for Advancing Translational Sciences (NCATS), 2018)
# Where “and” joins values, the source holds several entries; their conditions need not be identical. Equal values may be shown once. In all, about 48,000 compounds went through this assay and about 1,200 (2.5%) were called active. Inconclusive results (about 2%) are left out.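 How the source made its calls: active means activation of at least 60% and not above a set upper limit (about 1 call in 100 departs from these limits); inconclusive means activation of 40% to 60%, or above that upper limit; inactive means activation under 40%.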 This is one part of the list.
# Target: Probable G-protein coupled receptor 32 (Homo sapiens) (UniProt O75388)
# Experiment: qHTS for Agonists of Human Resolvin D1 Receptor DRV1; further: 0% is about no effect
# Settings: CHO-K1 GPR32 beta-arrestin PathHunter luminescence, 90 min; at 76.9 µM; hits give high values; zero percent set by DMSO-only wells
# Method in brief: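 PathHunter beta-arrestin recruitment in CHO-K1 cells stably expressing ProLink-tagged GPR32. Cells were exposed to compound for 90 min at 37 C, then chemiluminescence was read after 1 h detection at ambient temperature; DMSO served as basal control.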
# UniProt O75388, sequence (O75388 whole entry, looked up): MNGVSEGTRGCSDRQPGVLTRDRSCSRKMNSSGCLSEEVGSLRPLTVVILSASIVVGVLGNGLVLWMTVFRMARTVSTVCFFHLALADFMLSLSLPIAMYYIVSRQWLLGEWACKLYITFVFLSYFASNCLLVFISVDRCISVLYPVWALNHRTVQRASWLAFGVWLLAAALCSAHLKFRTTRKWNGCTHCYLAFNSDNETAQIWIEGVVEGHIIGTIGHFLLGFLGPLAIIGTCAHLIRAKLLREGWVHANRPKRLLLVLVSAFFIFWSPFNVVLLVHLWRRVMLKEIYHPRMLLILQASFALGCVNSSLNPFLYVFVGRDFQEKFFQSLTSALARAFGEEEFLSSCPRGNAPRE
row,Compound,activation
1,CC(C)CCNC(=O)Cn1c(-c2cccs2)cc2cc(F)ccc21,inactive: 33%
2,O=C(NCCc1ccc(Cl)cc1)c1ccc2c(c1)N(Cc1ccc(Cl)cc1)C(=O)CS2,inactive: -1.92%
3,C=Cc1ccc(Cn2c(=O)n(-c3cccc(Cl)c3)c(=O)c3c4c(sc32)CN(C(C)=O)CC4)cc1,inactive: -24.5%
4,CCN(Cc1ccccc1)Cc1c(O)ccc2oc(C)c(C(=O)Nc3ccc(C)cc3C)c12,inactive: -15.5%
5,COCCCNC(=O)CCn1c(=O)c2ccccc2n(CC(=O)Nc2cc(Cl)ccc2OC)c1=O,inactive: -2.43%
6,CCCCN(CC)c1nc(-c2ccccc2F)nc2ccccc12,inactive: -4.77%
7,Cc1cccc(N2CCn3c2nc2c3c(=O)n(C/C=C/c3ccccc3)c(=O)n2C)c1,inactive: -1.71%
8,CN1C(C(=O)Nc2cccc(O)c2)=CC(c2ccco2)=NS1(=O)=O,inactive: -12.4%
9,CC(C)c1ccc(NC(=O)N2c3ccccc3Sc3ccccc32)cc1,inactive: -9.72%
10,Cc1cc(C)c(NC(=O)Cn2nnc(S(=O)(=O)c3ccc(C)c(C)c3)c2N)c(C)c1,inactive: 36.3%
11,COc1ccc(-c2cc(C(=O)N3CCN(c4ccccc4)CC3)no2)cc1,inactive: 43.9%
12,Cc1c(C(=O)OC2CCCCCC2)[nH]c2c1C(=O)CC(c1ccc(Cl)cc1)C2 (centres undefined),inactive: -6.5%
13,Cc1ccc2c(c1)C(=O)OC(C(=O)Nc1ncc(Cc3ccc(Cl)cc3)s1)C2 (centres undefined),inactive: 13.1%
14,Cc1nnc(N2C(=O)c3oc4ccccc4c(=O)c3C2c2ccc(Cl)cc2)s1 (centres undefined),inactive: -4.8%
15,CCOc1ccc(NC(=O)NCc2cccn2Cc2ccccc2)cc1,inactive: 0.202%
16,O=C(c1ccc2c(c1)CCN2S(=O)(=O)c1ccc(Cl)cc1)N1CCN(c2ccc(F)cc2)CC1,inactive: -5.32%
17,Cc1cccc(C)c1-n1ncc(C(=O)NC2CCCC2)c1C1CCN(C(=O)OC(C)(C)C)CC1,inactive: -6.27%
18,O=C(COc1ccc(Cl)cc1Cl)Nc1cccc2cccnc12,inactive: 21.5%
19,CC(=O)O[C@]1(C(C)=O)CC[C@H]2[C@@H]3C[C@H](C)C4=CC(=O)CC[C@]4(C)[C@H]3CC[C@@]21C,inactive: -5.12%
20,O=C(O)c1cc(-c2ccccc2)nc2ccccc12,inactive: -23.5% and inactive: -25.1%
21,Cc1ccc2[nH]c3c(=O)n(CC(=O)N(CCN(C)C)Cc4ccccc4)ncc3c2c1,inactive: -38.7%

row,Compound,activation
1,Clc1cccc(C(c2ccc3nc[nH]c3c2)n2ccnc2)c1 (centres undefined),inactive: 28.7%
2,CC(=O)N1CCC(N(Cc2ccco2)C(=O)Nc2ccc(C)c(Cl)c2)CC1,inactive: 26.6%
3,COc1ccc(Nc2c(-c3ccc(C)o3)nc3cc(C)ccn23)cc1,inactive: -0.953%
4,Cc1cc(C)cc(NC(=O)Cn2cc(C(=O)c3cccs3)c3ccccc32)c1,inactive: -16.3%
5,Cc1ccc2oc(-c3ccc(C)c(NC(=O)/C=C/c4ccc(Cl)cc4)c3)nc2c1,inactive: -2.31%
6,CCOC(=O)CNC(=O)N1[C@H](c2cccs2)[C@@H](C)C(=O)[C@@H](C)[C@@H]1c1cccs1,inactive: -18.1%
7,Cc1ccc(CNC(=O)c2ccc(CN3CC(=O)N4CCCCC4C3=O)cc2)cc1 (centres undefined),inactive: -17.1%
8,CC(C)NCC(O)c1ccc2ccccc2c1 (centres undefined),active: 68.2%
9,COc1cc(NC(=O)c2nc3nc(C)cc(C(F)F)n3n2)c(OC)cc1Cl,inactive: 4.86%
10,CCOc1ccc(N2CC(NC(=O)C3CCCCC3)CC2=O)cc1 (centres undefined),inactive: -6.51%
11,CCOC(=O)c1ccc(NC(=O)CCc2c(C)nc3cc(-c4ccc(OC)cc4OC)nn3c2C)cc1,inactive: 6.14%
12,COc1cc(C(=O)Nc2ccc(-c3nc4cc(C)c(C)cc4o3)cc2)cc(OC)c1OC,inactive: 3.43%
13,CC(C)Oc1ccc(C(=O)N2CCC(c3nc4ccccc4s3)CC2)cc1,inactive: 3.89%
14,CCOC(=O)c1c(C)oc2nc(C)nc(NCCc3ccc(OCC)cc3)c12,inactive: 4.34%
15,CC1=C(C(=O)NCc2cccc(Cl)c2)C2(CCCCCC2)OC1=O,inactive: -18.9%
16,CC(=O)Nc1ccc(S(=O)(=O)N2CCC(n3c(C)nc4cccnc43)CC2)cc1,inactive: 10.7%
17,CCC(C)NC(=O)Cn1c(=O)n(-c2cc(OC)cc(OC)c2)c(=O)c2ccccc21 (centres undefined),inactive: -0.49%
18,COc1ccc(NC(=O)CCCc2nnc3n(C(C)C)c(=O)c4sccc4n23)cc1Cl,inactive: 1.02%
19,CCOc1ccc(CN(CCc2ccc3c(c2)OCO3)Cc2cc(OC)cc(OC)c2)cc1,inactive: -29.6%
20,CCOc1ccc(NC(=O)Cn2cc(C(=O)C3CC3)c3ccccc32)cc1,inactive: -2.49%
21,CCN1CCC(N(Cc2ccc(F)cc2)C(=O)Nc2ccc(C)c(F)c2)CC1,inactive: -16.9%

row,Compound,activation
1,COc1ccc(C(=O)Nc2ccc(-c3nc4cc(C)ccc4o3)c(O)c2)cc1,inactive: 44.3%
2,O=C(CSc1nccn1Cc1ccco1)Nc1ccc(OC(F)(F)F)cc1,inactive: -11.3%
3,Cc1cc(=O)[nH]c2nnc(SCc3cccc(C(F)(F)F)c3)n12,inactive: 22%
4,Cc1nc(N2CCOCC2)c2c(C(=O)N3CCN(c4cccc(C(F)(F)F)c4)CC3)c(C)oc2n1,inactive: -19.1%
5,Cc1cccc2nc(-c3ccc(Cl)s3)c(Nc3ccc4c(c3)OCCO4)n12,inactive: -27.3%
6,COc1ccc(NC(=O)C(Cc2ccccc2)NS(=O)(=O)c2ccc3c(c2)oc(=O)n3C)c(OC)c1 (centres undefined),inactive: -1.02%
7,COc1cc(Cl)c(NC(=O)CN2C(=O)c3cccnc3Sc3ccccc32)c(OC)c1,inactive: -21.4%
8,CC(C)c1ccc(NC(=O)Cn2nnc(C(=O)NCCc3ccccc3)c2N)cc1,inactive: -10.9%
9,COc1ccc(OC(=O)c2cc(-c3ccc4c(c3)OCCO4)on2)cc1,inactive: 2.98%
10,Cc1ccc(C)c(NC(=O)CSc2cn(CC(=O)N3CCCCC3)c3ccccc23)c1,inactive: -15.5%
11,CCOc1ccc(NC(=O)Cn2c(=O)nc(-c3ccccc3)c3ccccc32)cc1,inactive: -9.29%
12,Cc1nn(-c2ccccc2)c(-n2cccc2)c1C(=O)NCCCN1CCN(c2ccccc2F)CC1,inactive: 17.7%
13,Cc1ccc(OCC(=O)OCc2cc(=O)n3ccsc3n2)cc1C,inactive: -9.08%
14,COc1ccccc1N1CCN(c2ncc3c(n2)CCN(Cc2ccccc2C)C3)CC1,inactive: -10.2%
15,Cc1nc2ccc(S(=O)(=O)NCC(=O)NCc3ccc(Cl)cc3)cc2s1,inactive: -8.3%
16,Cc1ccc(-n2c(-c3ccc(Br)cc3)nc3c(cnn3-c3ccccc3)c2=O)cc1,inactive: -6.02%
17,COc1ccc(NC(=O)Cn2c(=O)n(Cc3ccco3)c(=O)c3sc4ccccc4c32)cc1OC,inactive: 30.8%
18,CC(=O)c1ccc(NC(=O)c2cnc(N3CCCC3)nc2C)cc1,inactive: 34.6%
19,CCOc1cc(C#N)c(NC(=O)c2ccc(OC)c(S(=O)(=O)N3CCCCC3)c2)cc1OCC,inactive: -6.62%
20,O=C(Cn1c(=O)n(Cc2ccco2)c(=O)c2ccccc21)Nc1cccc(F)c1,inactive: -26.7%
21,CCc1ccccc1NC(=O)Cn1c(=O)n(-c2ccccc2)c(=O)c2oc3ccccc3c21,inactive: -14.7%

row,Compound,activation
1,COc1ccccc1N1CCN(S(=O)(=O)c2ccc(-c3coc(C)n3)cc2)CC1,inactive: -0.991%
2,Cc1c2cnn(-c3ccccc3)c(=O)c2c(C)n1CC(=O)Nc1ccccc1Br,inactive: -33.9%
3,O=C(C1CCCCC1)N(Cc1cccnc1)c1nc2ccc(Cl)cc2s1,inactive: -5.6%
4,Cc1ccc(N2CCN(C(=O)c3cn(C)c4ccc(S(=O)(=O)N5CCC(C)CC5)cc4c3=O)CC2C)cc1 (centres undefined),inactive: -1.69%
5,COc1ccc2c(c1)CC(C(=O)Nc1ccc(Br)c(C)c1)CO2 (centres undefined),inactive: 2.16%
6,CCN(C(=O)CSc1nc(-c2ccc(C(C)C)cc2)no1)c1ccccc1,inactive: -8.56%
7,O=C(Nc1nnc(S(=O)(=O)N2CCCc3ccccc32)s1)c1ccc(Cl)cc1,inactive: 35.3%
8,Cc1ccccc1-c1nc(CS(=O)(=O)CC(=O)NCCCN2CCN(C)CC2)c(C)o1,inactive: -3.3%
9,Cc1c(N(C)CS(=O)(=O)O)c(=O)n(-c2ccccc2)n1C,inactive: -44.6%
10,COc1ccc(C(=O)NCC(=O)OCc2cc(=O)n3nc(C4CCCCC4)sc3n2)cc1,inactive: 17.9%
11,COc1ccc(NC(=O)CSc2nncn3c2cc2occc23)c(OC)c1,inactive: -27.7%
12,COc1ccc(-n2nnc(-c3nc(-c4ccc5c(c4)OCO5)no3)c2C)cc1Cl,inactive: 2.15%
13,Cc1ccc(NC(=O)NC(C)c2c(-n3cccc3)sc(C)c2C)c(C)c1 (centres undefined),inactive: -7.49%
14,Cc1ccc(SCC(=O)Nc2ccc(O)c(-c3nc4cc(C)ccc4o3)c2)cc1,inactive: -26.3%
15,Cc1ccccc1-n1c(SCC(=O)c2ccccc2)nnc1-c1ccc(F)cc1,inactive: -18.3%
16,COc1ccc(NC(=O)c2ccco2)cc1NC(=O)c1cccc(C)c1OC,inactive: -12.5%
17,O=C(Nc1ccccc1)C1CCN(S(=O)(=O)c2ccc3c(c2)CCCN3C(=O)C2CCC2)CC1,inactive: -13.6%
18,Cc1ccc2c(CN3CCN(c4ccc(Cl)cc4)CC3)cc(=O)oc2c1,inactive: -14.1%
19,Cc1ccc(CNC(=O)CCCCCn2c(=O)c3sccc3n(CC(=O)C(C)(C)C)c2=O)cc1,inactive: 4.39%
20,COc1ccc(Cn2c(CCC(=O)Nc3cc(C)cc(C)c3)nc3cccnc32)cc1,inactive: 26.9%
21,CCOc1cc(CNC(=O)CSc2n[nH]c(-c3ccccc3)n2)cc(OCC)c1OCC,inactive: -7.98%
